Test results reported in the RNAGym collection of RNA variant scans (doi:10.7554/elife.90254).
Read counts are not given, so values of variants with three or more changes are uncertain.

B1: OR4K15 (parent)
chain: GUUAACGGUCAUAGGCCAUGGAAACUAGGAGCACCAUUUCGCUGCCAGUGAAGAAAUGAACAAAGAAAAUCUGGGCCAGGCAGGCAUCAAAAGAAAUAGUCUUGCGCUCAACCAGAAAGUCUGUAAUCAUUUUAAGGGUA

Variants of: B1
Test: self-cleavage, relative activity (ratio to wild type); higher = more cleavage; in vitro, sequencing; the parent is a self-cleaving ribozyme
Work on GUUAACGGUCAUAGGCCAUGGAAACUAGGAGCACCAUUUCGCAGCCAGUGAAGAAAUGAACAAAGAAAAUCUGGGCCAGGCAGGCAUCAAAAGAGAUAGUCUUGCGCUCAACCAGAAAGUCUGUAGUCAUUUUAAGGGUA yielded a self-cleavage of 1.63. In the case of GUUAACGGUCAUAGGCCAUGGAAACUAGGAGCACCAUUUCGCCGCCAGUGAAGAAAUGAACAAAGAAAAUCUGGGCCAGGCAGGCAUCAAAAGAAAUAGCCUUGCGCUCAACCAGAAAGUCUGCAACCAUUUUAAGGGUA, the self-cleavage is reported as 0.99. In the case of GUUAACGGCCAUAGGCCAUGGAAACUAGGAGCACAAUUUCGCUGCCAGCGAAGAAAUGAACAAAGAAAAUCUGGGCCAGGCAGGCAUCAAAAGAAAUAGUCUUGCGCUCAACCAGAAAGUCUGUAAUCAUUUUAAGGGUA, the self-cleavage is reported as 0.91. Variant GUUAACGGUCAUUGGCCAUGGAAACUAGGAGCACCAUUUCGCUGCCAGUGAAGAAAUGAACAAAGAAAAUCUGGGCCAGGCAGGCAUCAAAAGAAAUAGUCUUGCGUUCAACCAGAGAGUCUGUAAUCAUCUUAAGGGUA has a self-cleavage of 0.01. With GUUAACGGUCAUAGGCCAUGGAAACUAGGAGCACCAUUUCGCUGCCAGUGAAGAAAUGAACAAAGAAAAUCUGGGCCAGGCAGGCACCAAAAGAAAUAGCCUUGCGCCCAACCAGAAAGUCUGUAAUCACUUUAAGGGUA the self-cleavage was 0. With GUUAACGGUCAUAGGCCUUGGAAACUAGGGGCACCAUUUCGCUGCCAGUGAAGAAAUGAACAAAGAAAAUCCGGGCCAGGCAGGCAUCAAAAGAAAUAGUCUUGCGCUCAACCAGAAAGUCUGUAAUCAUUUUAAGGGUA the self-cleavage was 0.3. GUUAGCGGUCAUAGGCCAUGGGAACUAGGAGCACCAUUUCGCUGCCAGUGAAGAAAUGAACAAAGAAAAUCUGGGCCAGGCAGGCACCAAAAGAAAUAGUCUUGCGCUCAACCAGAAAGUCUGUAAUCAUUUUAAGGGUA gave a self-cleavage of 0.5. For GUUAACGGUCAUAGGCCAUGGAAACUAGGAGCACCAUUUCGCUGCCAGUGGAGAAAUGAACAAAGAAAAUUUGGGCCAGGCAGGCAUCAAAAGAAAUAGUCUUGCGCUCAACCAGAAAGUCCGUAAUCAUUUUAAGGGUA, the self-cleavage was 0.24. GUUAACGGUCAUAGGCCAUGGAAACUGGGAGCACCAUUUCGCUGCCAGUGGAGAAAUGAACAAAGAAAAUCUGGGCCAGGCAGGCAUCAAAAGAAAUAGUCUUGCGCUCCACCAGAAAGUCUGUAAUCAUUUUAAGGGUA showed a self-cleavage of 0.45. Variant GUUAACGGUCACAGGCUAUGGAAGCUAGGAGCACCAUUUCGCUGCCAGUGAAGAAAUGAACAAAGAAAAUCUGGGCCAGGCAGGCAUCAAAAGAAAUAGUCUAGCGCUCAACCAGAAAGUCUGUAAUCAUUUUAAGGGUA has a self-cleavage of 0.33. Variant GUUAACGGUCAAAGGCCAUGGAAACUAGGAGCACCAUUUCGCUGCCAGUGAAGAAAUGAGCAAAGAAAAUCUGGGCCAGGCAGGCAUCAAAAGAAAUAGUCUUGCGCUCAACCAGUAAGUCUGUAAUCAUUUUAAGGGUA has a self-cleavage of 0.16. For GUUAACGGUCGUAGGCCAUGGAAGCUAGGAGCACCAUUUCGCUGCCAGUGAUGAAAUGAACAAAGAAAAUCUGGGCCAGGCAGGCAUCAAAAGAAAUAGUCCUGCGCUCAACCAGAAAGUCUGUAAUCAUUUUAAGGGUA, the self-cleavage was 0.49. With GUUAACGGUCAUAGGCCAUGGGAACUAGGAGCACCAUUUCGCUGCCAGUGAAGAAAUGAACAAAGAAAAUCUGGGCCAGGCAGGCAUCAGAAGGAAUAGUCUUGCGCUCAACCAGAAAGUCUGUAAUCAUUUUAAGGGUA the self-cleavage was 1.3. In the case of GUUAACGGUCAUAGGCCAUGGAAACUAGGAGCACCAUUUCGCUGCCAGUGAAGAAAUGAACAAAGAAAAUCUGGGCCAGGCAGGCAUCAGAAGAAGCAGUCUUGCGCUCAACCAGAAAGUCUGUAAUCAUUUUAAGGGUA, the self-cleavage is reported as 0.29. GUUAACGGUCAUAGGCCAUGGAAACUAGGAGCACCAUUUCGCUGCCAGUGAAGGAAUGAACAAAGAAAAUCUGGGCCAGGCAGGCAUCGAAAGAAAUAGUCUUUCGCUCAACCAGAAAGUCUGUAAUCAUUUUAAGGGUU showed a self-cleavage of 0.01. In the case of GUUAACGGUCGUAGGCCAUGGAAACUAGGAGCACCAUUUCGCUGCCAGUGAAGAAAUGAACAAAGAAAAUCUGGGCCAGGCUGGCAUCAAAAGAAAUAGUCUUGCGCCCAACCAGAAAGUCUGUAAUCAUUUUAAGGGUA, the self-cleavage is reported as 0.02. Variant GUUAACGGUCAUAGGCCAUGGAGACUAGGAGCACCAUUUCGCUGCCAGUGAAGAAAUGAACAAAGAAGAUCUGGGCCAGGCAGGCAUCAAAAGAAAUAGUCUUGCGCUCAACCAGAAAGUCUGUAAUCAUUUCAAGGGUG has a self-cleavage of 0.9. For GUUAGCGGUCAUAGGCCAUGGAAACUAGGAGCACCAUUUCGCUGCCAGUGAAGAAAUGAACAAAGAAAACCUGGGCCAGGCAGGCAUCGAAAGAAAUAGUCUUGCGCUCAACCAGAAAGUCUGUAAUCAUUUUAAGGGUA, the self-cleavage was 0.99. Variant GUUAACGGUCAUAGGCCAUGGAAACUAGGAGCACCAUUUCGCUGCCAGCGAAGGAAUGAACAAAGAAAAUCUGGGCCAGGCAGGCAUCAAAAGAAAUAGUCUUGCGCUCAACCAGAAAGUCCGUAAUCAUUCUAAGGGUA has a self-cleavage of 0.28. Variant GUUAACGGUCAUAGGCCAUGGAAACUAGGAGCACCAUUUCGCUGCCAGUGAAGAAAUGAACAAAGAAAAUCUGGGCCAGGCAGGCAUCGAAAGAAAUAGUCUUGCGCUCAACCAGAAGGUCUGUAACCAUUUUAAGGGUA has a self-cleavage of 0.33. For GUUAACGGUCAUAGGCCAUGGAAACUAGGAGCACCAUUUCGCUGCCAGUGGAGAAAUGAACAAAGAAAAUCUGGGCCAGGCAGGCAUCAAAAGAAAUAGUCUUGCGCUCAACCAGAAAGUCUGUAAUCAUCUUAAAGGUA, the self-cleavage was 0.97. GUUAACGGUCAUAGGCCAUGGAUACUAGGAGCACCAUUUCGCUGCCAGUGAAGAAAUGAACAAAGAAAAUCUGGGCCAGGCAGGCAUCAAAAGAGAUAGUCUUGCGCUCAACCAGAAGGUCUGUAAUCAUUUUAAGGGUA showed a self-cleavage of 1.53. In the case of GUUAACGGUCAUAGGCCAUGGUAACUAGGAGCACCAUUUCGCUGCCAGUGAAGAAAUGAACAAAGAAAAUCUGGGCCAGGCAGGCAUCAAAAGAAAUAGUCUUGCGCUCAACCAGACAGUCCGUAAUCAUCUUAAGGGUA, the self-cleavage is reported as 0.97. Work on GUUAACGGUCACAGGCCAUGGAAACUAGGAGCACCACUUCGCUGCCAGUGAAGAAAUGAACGAAGAAAAUCUGGGCCAGGCAGGCAUCAAAAGAAAUAGUCUUGCGCUCAACCAGAAAGUCUGUAAUCAUUUUAAGGGUA yielded a self-cleavage of 0.74. For GUUAACGGUCAUAGGCCAUGGAAACUAGGAGCACCAUCUCGCUGCCAGUGUAGAAAUGAACAAAGAAAAUCUGGGCCAGGCAGGCAUCAAAAGAAAUAGUCUUGCGCUCAACCAAAAGGUCUGUAAUCAUUUUAAGGGUA, the self-cleavage was 0.37. For GUUAACGGCCAUAGGCCAUGGAAGCUAGGAGCACCAUUUCGCUGCCAGUGAAGAAAUGAACAAAGAAGAUCUGGGCCAGGCAGGCAUCAAAAGAAAUAGUCUUGCGCUCAACCAGAAAGUCUGUAAUCAUUUUAAGGGUA, the self-cleavage was 1.74. In the case of GUUAACGGUCAUAAGCCAUGGAGACUAGGAGCACCAUUUCGCUGCCAGUGAAGAAAUGAACAAAGAAAAUCUGGGCCAGGCAGGCAUCAAAAGAAAUAGUCUUGCGCUCAACCAGAAAGUCAGUAAUCAUUUUAAGGGUA, the self-cleavage is reported as 0.73. In the case of GUUAACGGUCAAAGGCCAUGGAAACUAGGAGCACCAUCUCGCUGCCAGUGAAGAAAUGAACAAAGAAAAUCUGGGCCAGGCAGGCAUCAAAAGAGAUAGUCUUGCGCUCAACCAGAAAGUCUGUAAUCAUCUUAAGGGUA, the self-cleavage is reported as 0.9. In the case of GUUAACGGUCAUAGGCCAUGGAAACUAGGAGCACCAUUUCGCUGCCAGUGAAGAAAUGAACAAAGAAAGUCUGGGCCAGGCAGACAUCAAAAGAAAUAGUCUUGCGCCCAACCAGAAAGUCUGUAACCAAUUUAAGGGUA, the self-cleavage is reported as 0.01. For GUUAACGGUCGUAGGCCAUGGAGACUAGGAGCACCAUUCCGCUGCUAGCUAAGAAAUGAACAAAGAAAAUCUGGGCCAGGCAGGCAUCAAAAGAAAUAGUCUUGCGCUCAACCAGAAAGUCUGUAAUCAUUAUAAGGGUA, the self-cleavage was 1.03. In the case of GUUAACGGUCAUAGGCCAUGGAAACUAGGAGCACCAUUUCGCUGCCAGUGAAGAAAUGAACAAAGAAAAUCUGGGCCAGGCAGGCAUCAAAAGAAAUAGUCUUGCGCUCAACCAGAAAGCCUGCAAUCAUCUUAAGGGUA, the self-cleavage is reported as 1.53. For GUUUACGGUCAUAGGCCAUGGAAACUAGGAGCACCAUUUCGCUGCCAGUGGAGAAAUGAACAAAGUAAUUCUGGGCCAGGCAGGCAUCAAAAGAAAUAGUCCUGCGCUCAACCAGAAAGUCUGUAAUCAUUUUAAGGGUA, the self-cleavage was 1.89. In the case of GUUAACGGUCAUAGGCCAUGGAAACUAGGAGCACCAUUUCGCCGCCAGUGAAGAAAUGAACAAAGAGAAUCUGGGCCGGGCAGGCAUCAAAAGAAAUAGUCUUGCGCUCAACCAGAAAGCCUGUAAUCAUUUUAAGGGUA, the self-cleavage is reported as 0.14. GUUAACGGUCAUAGGCCAUGGAAACUAGGAGCACCAUUUCGCUGCCAGUGAAGAAGUGAACAAAGAAAAUCUGGGCCAGGCAGGCAUCAGAAGAAAUAGUCUUGCGCCCAACCAGAAAGUCUGUAAUCAUUUUAAGGGUA showed a self-cleavage of 0.01. Variant GCUAACGGUCAUAGGCCAUGGAAACUAGGAGCACCAUUUCGCUGCCGGUGAAGAAGUGAACAAAGAAAAUCUGGGCCAGGCAGGCAUCAAAAGAAAUAGUCUUGCGCUCAACCAGAAGGUCUGUAGCCGUUUUAAGGGUA has a self-cleavage of 0.04. With GUUAACGGCCAUAGGCCAUGGAAACUAGGAGCACCAGUUCGCUGCCAGUGAAGAAAUGAACAAAGAAAAUCUGGGCCAGGCAGGCAUCAAAUGAAAUGGUCUUGCGCUCAACCAGAAAGUCCGUAAUCAUUUUAAGGGUA the self-cleavage was 0. For GUUAACGGUCAUAGGCCAUGGAAACUAGGAGCACGAUUUUGCUGCCAGUGAAGAAAUGAACAAAGAAAAACUGGGCCAGGCAGGCAUCAAAAGAAAUAGUCUUGCGCUCAACCAGAAAGUCUGUAAUCAUUUUAAGGGUA, the self-cleavage was 0.64. Variant GUUAACGGUCAUAGGCCAUGGAAACUAGGAGCACCAUUUCGCUGCCAGUGAAGAAAUGAACAGAGAAAAUCUGGGCCAGGCAGGCAUCAAAAGAAAUAGUCUCGCGCUCAACCAGAAAGUCUGCAAUCAUUUUAAGGGUA has a self-cleavage of 0.87. Variant GUUAACGGUCAUAGGCCAUGGAAACUAGGAGCACCAUUUCGCUGCCAGUGAAGAAAUGAACAAAGAAGACCUGGGCCAGGCAGGCAUCAAAAGAGAUAGUCUUGCGCUCAGCCAGAAAGUCUGUAGUCAUUUUAAGGGUA has a self-cleavage of 0.01. GUUAACGGUCAUGGGCCAUGGAAACUAGGAGCACCAUUUCGCUGCCAGUGAAGAAAUGAACAAAGAAAAUCUGGGCCAGGCAGGCAACAAAAGAAAUAGUCUUGCGCCCAACCAGAAAGUCUGUAAUCAUUUUAAGGGUA showed a self-cleavage of 0.09. With GUUAACGGUCAUAGGCCAUGGAAACUAGGAGCUCCAUUUCGCUGCCAGCGAAGAAAUGAUCAAAGAAAAUCCGGGCCAGGCAGGCAUCAAAAGAAAUAGUCUUGCGCUCAACCAGAAAGUCUGUAAUCAUUUUAAGGGUA the self-cleavage was 0.21.
